Measured values published in publication PMC12044017, “CDK4/6-mediated phosphorylation of DUB3 promotes YAP1 stability and hepatocellular carcinoma progression” (Cell Death Discovery, 2025).
No constants are given. Whether binding was seen depends on the method and setting. For part of these data: Binding seen in cells or lysates may run through a third protein. Some entries that bind do so weakly or less than the wild type. For part of these data: Tags and fused reporters may be left off the sequences shown.

The chains behind the UniProt entries cited, without tags or fusion partners.
UniProt Q00534: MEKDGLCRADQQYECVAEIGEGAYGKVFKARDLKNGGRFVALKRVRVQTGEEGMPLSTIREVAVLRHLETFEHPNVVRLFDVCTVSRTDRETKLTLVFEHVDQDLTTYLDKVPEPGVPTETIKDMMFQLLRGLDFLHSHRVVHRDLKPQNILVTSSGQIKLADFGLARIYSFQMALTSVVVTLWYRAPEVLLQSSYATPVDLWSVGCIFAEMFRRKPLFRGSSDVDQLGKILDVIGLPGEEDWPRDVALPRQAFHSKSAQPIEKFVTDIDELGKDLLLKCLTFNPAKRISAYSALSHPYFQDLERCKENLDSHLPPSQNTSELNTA
UniProt P11802: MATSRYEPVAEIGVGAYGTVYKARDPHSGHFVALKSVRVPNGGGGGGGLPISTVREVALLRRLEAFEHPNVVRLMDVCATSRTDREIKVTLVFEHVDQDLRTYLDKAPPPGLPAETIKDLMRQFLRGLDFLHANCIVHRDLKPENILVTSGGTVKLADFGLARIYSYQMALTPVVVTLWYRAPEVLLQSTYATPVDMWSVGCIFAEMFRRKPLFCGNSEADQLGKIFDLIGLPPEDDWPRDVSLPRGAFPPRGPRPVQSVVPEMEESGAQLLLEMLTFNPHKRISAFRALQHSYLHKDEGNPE
UniProt P46937: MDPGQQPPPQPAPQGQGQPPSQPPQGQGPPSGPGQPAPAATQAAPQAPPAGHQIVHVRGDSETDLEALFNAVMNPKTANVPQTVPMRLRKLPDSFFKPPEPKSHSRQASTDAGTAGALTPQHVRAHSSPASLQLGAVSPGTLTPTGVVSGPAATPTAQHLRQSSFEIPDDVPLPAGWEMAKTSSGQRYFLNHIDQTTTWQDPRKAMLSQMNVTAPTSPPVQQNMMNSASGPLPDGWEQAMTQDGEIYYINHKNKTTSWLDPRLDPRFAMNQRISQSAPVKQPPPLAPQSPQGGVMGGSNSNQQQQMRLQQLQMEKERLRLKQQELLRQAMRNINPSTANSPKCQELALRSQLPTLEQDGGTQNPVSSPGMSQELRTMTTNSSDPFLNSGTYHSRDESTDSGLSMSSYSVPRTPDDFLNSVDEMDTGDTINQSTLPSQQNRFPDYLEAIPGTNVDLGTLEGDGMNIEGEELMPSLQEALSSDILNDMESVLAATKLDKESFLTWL

Columns and labels:
GST-CDK6 = GST-CDK6 (UniProt Q00534); assay: pull-down; GST-fusion protein on Pierce Glutathione agarose mixed with purified His-tagged protein at 4 °C for 2 hours; beads washed four times; western blot; both purified
GST-CDK4 = GST-CDK4 (UniProt P11802); assay: as above
GST-YAP1 = GST-YAP1 (UniProt P46937); assay: as above
[1] = biological target: CDK6 (endogenous) (human (endogenous in HCCLM3)) (UniProt Q00534); assay: co-IP; endogenous proteins; HCCLM3 or HepG2 cells lysed in NETN buffer, 4 hours with primary antibodies and protein A/G beads at 4 °C; beads washed four times; western blot
[2] = biological target: CDK4 (endogenous) (human (endogenous in HCCLM3)) (UniProt P11802); assay: as above
[3] = biological target: YAP1 (endogenous) (human (endogenous in HCCLM3 and HepG2)) (UniProt P46937); assay: as above

Molecule: His-YAP1 (from UniProt P46937 1-504)
- binding (GST-CDK6): no binding
- binding (GST-CDK4): no binding

B1: His-DUB3 (enzyme, UniProt Q6R6M4 1-530)
chain: MEDDSLYLGGEWQFNHFSKLTSSRPDAAFAEIQRTSLPEKSPLSSEARVDLCDDLAPVARQLAPRKKLPLSSRRPAAVGAGLQNMGNTCYENASLQCLTYTPPLANYMLSREHSQTCQRPKCCMLCTMQAHITWALHSPGHVIQPSQALAAGFHRGKQEDAHEFLMFTVDAMKKACLPGHKQVDHHSKDTTLIHQIFGGCWRSQIKCLHCHGISDTFDPYLDIALDIQAAQSVKQALEQLVKPEELNGENAYHCGLCLQRAPASKTLTLHTSAKVLILVLKRFSDVTGNKLAKNVQYPECLDMQPYMSQQNTGPLVYVLYAVLVHAGWSCHDGHYFSYVKAQEGQWYKMDDAKVTACSITSVLSQQAYVLFYIQKSEWERHSESVSRGREPRALGAEDTDRRATQGELKRDHPCLQAPELDERLVERATQESTLDHWKFPQEQNKTKPEFNVRKVEGTLPPNVLVIHQSKYKCGMKNHHPEQQSSLLNLSSTTRTDQESVNTGTLASLQGRTRRSKGKNKHSKRALLVCQ
- binding (GST-YAP1): binds

B2: DUB3 (endogenous) (enzyme, UniProt Q6R6M4 1-530)
chain: MEDDSLYLGGEWQFNHFSKLTSSRPDAAFAEIQRTSLPEKSPLSSEARVDLCDDLAPVARQLAPRKKLPLSSRRPAAVGAGLQNMGNTCYENASLQCLTYTPPLANYMLSREHSQTCQRPKCCMLCTMQAHITWALHSPGHVIQPSQALAAGFHRGKQEDAHEFLMFTVDAMKKACLPGHKQVDHHSKDTTLIHQIFGGCWRSQIKCLHCHGISDTFDPYLDIALDIQAAQSVKQALEQLVKPEELNGENAYHCGLCLQRAPASKTLTLHTSAKVLILVLKRFSDVTGNKLAKNVQYPECLDMQPYMSQQNTGPLVYVLYAVLVHAGWSCHDGHYFSYVKAQEGQWYKMDDAKVTACSITSVLSQQAYVLFYIQKSEWERHSESVSRGREPRALGAEDTDRRATQGELKRDHPCLQAPELDERLVERATQESTLDHWKFPQEQNKTKPEFNVRKVEGTLPPNVLVIHQSKYKCGMKNHHPEQQSSLLNLSSTTRTDQESVNTGTLASLQGRTRRSKGKNKHSKRALLVCQ
- binding [1]: binds
- binding [2]: binds
- binding [3]: binds
